Sequences with one replicate were seen in a single cluster, so their values are uncertain.
system: ATP; test: switch fluorescence ratio, 500 uM ATP over buffer (Cy3 cluster intensity, sum of 5 cycles each) (fold (ratio)); higher = stronger signal-on switching upon ATP binding; sequences stand for … in TCGTCGGCAGCGTCAGATGTGTATAAGAGACAGTTTTTTTTTTTTTTTTTTTTTTTTT…TC; conditions: aptamer strand: ATP DNA aptamer (quencher-CACCTGGGGGAGTATTGCGGAGGAAGG + anchor), 100 nM annealed; ATP concentration: 500 uM; one replicate
In short: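 Values give the fluorescence ratio for each switch-domain sequence, averaged from per-cluster ratios of summed target-cycle to summed buffer-cycle Cy3 intensity. The Cy3-labelled switching-strand clusters sat on a modified Illumina MiSeq flow-cell, were annealed to 100 nM quencher-labelled ATP aptamer, and were imaged in selection buffer, then after 15 min with 500 uM ATP at 22 °C. Five cycles ran with NaOH stripping and re-annealing between them, and clusters outside 100-1000 RFU were excluded.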
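Also: ATP exposure 15 min at 22 °C before imaging.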

Sequence	switch fluorescence ratio
TTCTACAGTC	0.95
ACGTTTCGGC	1
GGAGTTGTAT	0.947
TTTGCATTTT	0.953
TATTTGGATT	0.973
GTTATTTGAT	0.986
TTGCGTCTTT	1.03
TCGCCCTCGT	1.02
AGCACGGCGT	1.04
CCCATTTTCT	0.978
TGCGGCTTGC	0.993
CCTCTCAAAT	4.3
AGCTGCACGA	1.08
AGGCAATGAC	1.86
GCCGAGAAGG	1.02
TAGGATGTAG	1.03
AGTGGGTAAC	1.01
GCGGCAGGTG	2.41
ACCTCAAGTA	1.04
CCAACCTGTT	1.03
ACTCTGGCAC	2.9
TGTTCAGCCA	0.999
TCTGGGTTT	0.965

Sequence	switch fluorescence ratio
TCAATTCTTC	1.34
AGTTGCACTG	0.956
GCCTGGATTA	1
ACACTGTCGT	1
GACTGATGTC	0.986
GGATGGTCGC	0.979
CTAAACCAGT	1
GTAAGTCGTT	0.985
TTGAGATCTG	0.991
AAAGTAGCTT	1.03
GTTCCGGCTT	0.955
CGAATTTTGG	1
CGGCCGTCGG	1.04
CCTGTTGCCG	1.04
ATATGGCTAA	1.03
GAGTAGCGTC	0.977
TTTGTTGACG	0.965
ACCAGATCCG	1.11
CCGACAACGG	1.22
AAATAATACT	1.09
TAGCTAATAT	1.05
TCATTCGACA	1.06
ATTTCTAAAT	1.02

Sequence	switch fluorescence ratio
TCATGCCAAT	0.993
TCCGAATAGT	1.29
ACGAGTGCTT	0.993
CCATAATCTA	0.987
TGTGCGATGC	2.31
CGTCCTTAAC	1.17
GGGTCAAGAG	1.02
TCGATCTGCC	1.05
CGAAACGAGG	1.02
AGCATGTGCG	0.885
TCTAAATTGT	0.976
ACTTGGCATA	1.25
TACGGTGCCT	1.02
CATCTTACTA	0.991
TTCGGACGAG	1.02
TGGAGTGAGT	0.99
AGGCTTTTGG	1.01
TTCTGCATAT	1.27
TTTAAAGAAG	1.06
CAAGCAAGCG	1.14
ACCGGGCGGA	1.01
ACAAAGCCGA	0.955
ACGAAAGGGG	1.04

Sequence	switch fluorescence ratio
GCGCGGTCGA	0.991
AGGATTAAA	0.969
TTGATGGCCA	1.06
GAGGCGTGAT	1.01
CACAAGGAGG	1.02
GGGGTCGAGA	1.01
TGGGGTGCCT	1
TTGATTTTG	1.04
AGGAGGTAGC	0.954
ATGCAGCAAA	1.03
CCAACTAATC	1.13
TTGCATAGGC	0.996
ACTATGTATG	0.945
ATTATGGTTG	1
GAGCGAGCTA	1.05
ACGAATATAA	1.03
TATATGCGAG	0.995
TGCAGTTCGG	0.994
CTAAGAGCCA	0.964
AGGAAACCTA	1.09
CATGGAGCGC	1.04
GCAGTAGAAT	0.965
GAAGTAGAAG	0.979

Sequence	switch fluorescence ratio
GCCGTTTAGA	1.01
TCATAGAGCA	0.975
TGTGGGTTCG	0.984
CGGGTCCCGA	1.02
TCATTTGAAG	0.959
ATCGGTCTCG	0.934
CTTATCTTAT	0.947
AAGTGCACTA	0.995
CCTGGCCAGG	1.06
TGGGTTTAGT	0.959
CCCTTTAGAA	1.11
CTGCTATTGT	0.992
AAAAAATCTC	1
GGAGGCAATT	1.79
GCAAAGAGT	1.02
GATGTAAAAC	1.13
CATTGACGTG	0.991
TAGCCCCAAG	2.37
TCCAACCAAG	1.06
CAGCGGGGTC	1.08
GTCAACGCGC	1.05
ACTATTGAGC	1.05
TTCTTAGAAC	1.07

Sequence	switch fluorescence ratio
AGGTAACCCT	1.02
GCTGAGGGGT	1.11
GCTTCTTACA	0.982
TGACTTAAGT	0.997
CATGCTTAAT	1
ATGGTGCAAT	1.34
CCGGGCCAAA	1.49
CTCTGGTCTT	0.966
TATTTTAGTC	1.07
CAATTAATTT	1.05
CTGGAAATCT	1.09
ATCCTGCGG	0.961
GTGTGATTAG	0.976
GTTGGATCAC	1
CAAGGAACTT	1.03
TTTCGGCGAC	1.08
TTTGCAGACG	1.05
CGTGTGTTCA	0.99
ACGTTAGTTA	0.989
ACAAGGAAAA	1.05
CAGGCATCTA	1
GAATCCGTGA	1.34
GTACGACTTA	0.999

Sequence	switch fluorescence ratio
GTATAGAATG	1.05
ATTACCACTA	1.06
AGGTAATGCT	1.06
TTGAGCAGTG	1.04
CTCGACATGT	1.02
TATCAATGGG	1.05
GGGACTGCCC	1.01
ACCAATCAA	0.973
ATGGGCGTGC	1.03
AACTTAGCAT	1.04
CCCTTTGGGG	1.06
TGGAAATCTG	1.02
GTGTACCCCT	1.09
TCTGACTTTA	1.14
AACGGCCTTA	1.02
AATCTATTTA	1.01
CCGAGAGTAT	1.25
TCACTAGGAG	1.06
GTAGTTGGGA	0.961

Source: the supplement of paper PMC10126150
